Article PMC5892938
The list shows a part of the results. The exact form of the protein is not confirmed.

The sequences below were run against GST-SBP-ILF3 (Homo sapiens) (UniProt Q12906) (assay: targeted RNA Bind-n-Seq). Settings: RBNS binding buffer: 25 mM Tris pH 7.5, 150 mM KCl, 3 mM MgCl2, 0.1% Tween, 0.5 mg/mL BSA, 1 mM DTT; 27 nM protein, 750 pM RNA pool; temperature not stated; high values mean tight binding; sequences stand for … in GGGUAAAAGCGAGGUGAA…CGGGACAAGUAUUAUGGG.
In the case of “UUUUUUUUUUGAGACUGAGCCAGUCUCCGG [tttttgagapaired]”, the binding signal (log2 fold change) is reported as 0.321. “UUUUUUUUUUGAGAGCGUGGCGUUCUCCAG [tttttgagapaired]” was tested, and the binding signal (log2 fold change) was 0.487. Sequence “UUUUUUUUUUGAGAUGGUUUCCAUUUCCAG [tttttgagapaired]” has a binding signal (log2 fold change) of 0.19. For “UUUUUUUUUUGAGAGGGCGACCCUCUCCAG [tttttgagapaired]”, the binding signal (log2 fold change) was 0.531. “UUUUUUUUUUGAGACCGUCACGGUCUUCUG [tttttgagapaired]” gave a binding signal (log2 fold change) of 0.477. “UUUUUUUUUUGAGACGGAGGCCGUCUCCUA [tttttgagapaired]” was tested, and the binding signal (log2 fold change) was 0.569. In the case of “UUUUUUUUUUGAGAUCGAGGCGAUCUCCUA [tttttgagapaired]”, the binding signal (log2 fold change) is reported as 0.192. Sequence “UUUUUUUUUUGAGACUGUGUCAGUCUUCUG [tttttgagapaired]” has a binding signal (log2 fold change) of 0.662. In the case of “GUGUGGUGUGUUGGCUCCUAACACAUCGCG [gtspaired]”, the binding signal (log2 fold change) is reported as -0.62. “UUUUUUUUUUGAGACCGUAUCGGUCUUCUG [tttttgagapaired]” was tested, and the binding signal (log2 fold change) was 0.346. Work on “GUGUUGUGUGUUGGCCUCUAACACACAGCG [gtspaired]” yielded a binding signal (log2 fold change) of -0.416. In the case of “UUUUUUUUUUGAGACUGUUGCAGUCUCCUA [tttttgagapaired]”, the binding signal (log2 fold change) is reported as 0.442. For “GUUGUGUGUGUUGGUCUCUAACACACGCAG [gtspaired]”, the binding signal (log2 fold change) was -0.912. In the case of “UUUUUUUUUUGAGAGGGUUGCCCUCUCCAG [tttttgagapaired]”, the binding signal (log2 fold change) is reported as 0.562. Sequence “GGUGUGUGUGUUGGAGUCUAACACAUACAC [gtspaired]” has a binding signal (log2 fold change) of -0.277. “GUGUGUUGUGUUGGACCCUAACACAGCACG [gtspaired]” showed a binding signal (log2 fold change) of -0.277. For “GUUGGUGGUGUUGGAACCUAACACCGCCAG [gtspaired]”, the binding signal (log2 fold change) was -0.646. In the case of “UUUUUUUUUUGAGAUGGAAGCCAUCUCCUA [tttttgagapaired]”, the binding signal (log2 fold change) is reported as -0.13. In the case of “UUUUUUUUUUGAGAGCGGAUCGUUCUUCUA [tttttgagapaired]”, the binding signal (log2 fold change) is reported as 0.0883. In the case of “UUUUUUUUUUGAGAGCGUAGCGUUCUCCUA [tttttgagapaired]”, the binding signal (log2 fold change) is reported as 0.357. For “GUGUGUGGUGUUGGAACCUAACACCAUACA [gtspaired]”, the binding signal (log2 fold change) was 0.0792. “GUGUGUUGUGUUGGUGUCUAACACAGCACG [gtspaired]” gave a binding signal (log2 fold change) of -0.795. With “UUUUUUUUUUGAGACCGAACCGGUUUCCUA [tttttgagapaired]” the binding signal (log2 fold change) was 0.094. In the case of “UUUUUUUUUUGAGACCGGGUCGGUCUCCGG [tttttgagapaired]”, the binding signal (log2 fold change) is reported as 0.462. “UUUUUUUUUUGAGACCGGUCCGGUCUCCUA [tttttgagapaired]” gave a binding signal (log2 fold change) of 1.12. Work on “UUUUUUUUUUGAGACGGGCACCGUCUUCUA [tttttgagapaired]” yielded a binding signal (log2 fold change) of 0.052. “GGUGUGUGUGUUGGAACCUAACACAUAUAC [gtspaired]” showed a binding signal (log2 fold change) of -0.791. Sequence “GUGUGUGGUGUUGGCCCCUAACACCGCAUA [gtspaired]” has a binding signal (log2 fold change) of 0.0552. Sequence “UUUUUUUUUUGAGACUGAAUCAGUCUCCAG [tttttgagapaired]” has a binding signal (log2 fold change) of 0.204. For “UUUUUUUUUUGAGAGGGAGACCCUUUCCAG [tttttgagapaired]”, the binding signal (log2 fold change) was 0.401. Work on “UUUUUUUUUUGAGAUGGUUGCCAUCUCCAG [tttttgagapaired]” yielded a binding signal (log2 fold change) of 0.313. Work on “UUUUUUUUUUGAGACGGAAACUGUCUCCUA [tttttgagapaired]” yielded a binding signal (log2 fold change) of 0.636. “UUUUUUUUUUGAGACGGAGUCCGUCUCCGG [tttttgagapaired]” gave a binding signal (log2 fold change) of 0.771. “GUGGUUGGUGUUGGCGUCUAACACCAAUCA [gtspaired]” gave a binding signal (log2 fold change) of -0.22. Work on “UUUUUUUUUUGAGAGCGUGACGCUCUUCUG [tttttgagapaired]” yielded a binding signal (log2 fold change) of 0.512. For “GGUUGGUGUGUUGGUCCCUAACACAUCAGC [gtspaired]”, the binding signal (log2 fold change) was -0.46. “UUUUUUUUUUGAGAACGAAUCGUUCUUCUA [tttttgagapaired]” was tested, and the binding signal (log2 fold change) was -0.435. “GUGUGGUGUGUUGGCUCCUAACACAUCACG [gtspaired]” showed a binding signal (log2 fold change) of -0.52. “GGUGGUUGUGUUGGAAUCUAACACAAUCGC [gtspaired]” was tested, and the binding signal (log2 fold change) was -0.785. In the case of “UUUUUUUUUUGAGAGCGAGACGCUCUCCUA [tttttgagapaired]”, the binding signal (log2 fold change) is reported as -0.0432. For “UUUUUUUUUUGAGACGGCGGCCGUUUCCAG [tttttgagapaired]”, the binding signal (log2 fold change) was 0.867. Sequence “GGUGUUGGUGUUGGCUCCUAACACCGAUAC [gtspaired]” has a binding signal (log2 fold change) of -0.577. “UUUUUUUUUUGAGACCGAAGCGGUCUUCUA [tttttgagapaired]” gave a binding signal (log2 fold change) of 0.54. Sequence “UUUUUUUUUUGAGACGGACCCCGUCUCCUG [tttttgagapaired]” has a binding signal (log2 fold change) of 0.877. Work on “UUUUUUUUUUGAGAGUGACACACUCUCCAG [tttttgagapaired]” yielded a binding signal (log2 fold change) of 0.138. “UUUUUUUUUUGAGAUGGUGUCCAUCUCCUG [tttttgagapaired]” gave a binding signal (log2 fold change) of 0.639. Work on “GUGGUGUGUGUUGGAAUCUAACACACAUCA [gtspaired]” yielded a binding signal (log2 fold change) of -0.263. Work on “UUUUUUUUUUGAGAUGGUAACCAUCUCCUA [tttttgagapaired]” yielded a binding signal (log2 fold change) of 0.0437. “UUUUUUUUUUGAGACCGUUUCGGUCUUCUG [tttttgagapaired]” was tested, and the binding signal (log2 fold change) was 0.565. Work on “GGUUGGUGUGUUGGUGCCUAACACAUCGAC [gtspaired]” yielded a binding signal (log2 fold change) of -0.606. Sequence “UUUUUUUUUUGAGACUGGAACAGUCUCCGG [tttttgagapaired]” has a binding signal (log2 fold change) of 0.107. For “GUGUGUGGUGUUGGUUCCUAACACCACGCG [gtspaired]”, the binding signal (log2 fold change) was -0.526. With “GGUGUGUGUGUUGGUACCUAACACAUACGC [gtspaired]” the binding signal (log2 fold change) was -0.928. “UUUUUUUUUUGAGAGCGUAACGUUCUCCUA [tttttgagapaired]” gave a binding signal (log2 fold change) of 0.109. In the case of “UUUUUUUUUUGAGAGCGAAACGCUCUUCUG [tttttgagapaired]”, the binding signal (log2 fold change) is reported as 0.0452. “UUUUUUUUUUGAGAGCGGGUCGUUCUCCAG [tttttgagapaired]” gave a binding signal (log2 fold change) of 0.39. Work on “UUUUUUUUUUGAGAGGGUAUCCCUCUUCUA [tttttgagapaired]” yielded a binding signal (log2 fold change) of 0.307. Work on “GUGUGGUGUGUUGGAGUCUAACACACUACA [gtspaired]” yielded a binding signal (log2 fold change) of -0.62. Work on “UUUUUUUUUUGAGAUCGUACCGAUCUCCGG [tttttgagapaired]” yielded a binding signal (log2 fold change) of 0.227. “UUUUUUUUUUGAGAGCGGUGCGUUCUCCUG [tttttgagapaired]” was tested, and the binding signal (log2 fold change) was 0.513. Work on “UUUUUUUUUUGAGAGGGCAGCCCUUUCCAG [tttttgagapaired]” yielded a binding signal (log2 fold change) of 0.56. Sequence “GUGUGUUGUGUUGGAGCCUAACACAGCACA [gtspaired]” has a binding signal (log2 fold change) of -0.433. Work on “UUUUUUUUUUGAGACCGGGUCGGUCUCCAG [tttttgagapaired]” yielded a binding signal (log2 fold change) of 0.405. “UUUUUUUUUUGAGAGGGAGCCCCUCUCCUA [tttttgagapaired]” showed a binding signal (log2 fold change) of 0.426. Sequence “GGUUGUUGUGUUGGUACCUAACACAGCAAC [gtspaired]” has a binding signal (log2 fold change) of -0.666. Work on “UUCUCUUCUCCUCCUGGGGAGGGGAAGGGA [ctspaired]” yielded a binding signal (log2 fold change) of -0.575. “GGUGUGUGUGUUGGAGUCUAACACACGCGC [gtspaired]” was tested, and the binding signal (log2 fold change) was -0.517. “UUUUUUUUUUGAGAGCGAAGCGUUCUCCUA [tttttgagapaired]” showed a binding signal (log2 fold change) of 0.0965. “GGUGGUUGUGUUGGACCCUAACACAACUAC [gtspaired]” was tested, and the binding signal (log2 fold change) was -0.117. “UUUUUUUUUUGAGACGGGUGCCGUCUCCUG [tttttgagapaired]” gave a binding signal (log2 fold change) of 0.835. “GUGUGUUGUGUUGGACCCUAACACAACACG [gtspaired]” gave a binding signal (log2 fold change) of -0.262. “GUGGUGUGUGUUGGCAUCUAACACACGCCA [gtspaired]” showed a binding signal (log2 fold change) of -0.378. Work on “GGUUGUUGUGUUGGUCCCUAACACAGCAAC [gtspaired]” yielded a binding signal (log2 fold change) of -0.614. Work on “UUUUUUUUUUGAGAUGGACACCAUCUCCGG [tttttgagapaired]” yielded a binding signal (log2 fold change) of 0.291. Sequence “GUGUGUUGUGUUGGUUCCUAACACAACGCG [gtspaired]” has a binding signal (log2 fold change) of -0.857. In the case of “GUUGGUGGUGUUGGUACCUAACACCAUCAA [gtspaired]”, the binding signal (log2 fold change) is reported as -0.941. “GUUGUGUGUGUUGGCGCCUAACACACGCAA [gtspaired]” showed a binding signal (log2 fold change) of 0.126. Work on “UUUUUUUUUUGAGACUGUUGCAGUCUCCAG [tttttgagapaired]” yielded a binding signal (log2 fold change) of 0.34. Sequence “UUUUUUUUUUGAGAGGGCCACCCUCUCCGG [tttttgagapaired]” has a binding signal (log2 fold change) of 0.783. “GUGGUUGGUGUUGGCGCCUAACACCAGCCA [gtspaired]” showed a binding signal (log2 fold change) of -0.286. Sequence “GUGUGUUGUGUUGGAGUCUAACACAGCGCA [gtspaired]” has a binding signal (log2 fold change) of -0.581. Work on “GGUGGUGGUGUUGGACCCUAACACCAUCGC [gtspaired]” yielded a binding signal (log2 fold change) of -0.477. For “UUUUUUUUUUGAGAGUGAAGCACUCUUCUG [tttttgagapaired]”, the binding signal (log2 fold change) was 0.125. Work on “UUUUUUUUUUGAGACCGUGUCGGUCUUCUA [tttttgagapaired]” yielded a binding signal (log2 fold change) of 0.448. With “UUUUUUUUUUGAGAGCGAAACGUUCUCCGG [tttttgagapaired]” the binding signal (log2 fold change) was 0.0893. Work on “UUUUUUUUUUGAGAUGGGUACCAUCUCCGG [tttttgagapaired]” yielded a binding signal (log2 fold change) of 0.217. Work on “GUGUUGUGUGUUGGACUCUAACACACAACG [gtspaired]” yielded a binding signal (log2 fold change) of -0.611. “UUUUUUUUUUGAGAUGGGGACCAUCUCCAG [tttttgagapaired]” was tested, and the binding signal (log2 fold change) was 0.288. With “GGUGUGUGUGUUGGCCUCUAACACAUACAC [gtspaired]” the binding signal (log2 fold change) was -0.226. In the case of “UUUUUUUUUUGAGAGGGCGUCCUUCUCCGG [tttttgagapaired]”, the binding signal (log2 fold change) is reported as 0.868. In the case of “GGUUGUGGUGUUGGACCCUAACACCACGAC [gtspaired]”, the binding signal (log2 fold change) is reported as -0.166. With “UUUUUUUUUUGAGACCGAGUCGGUUUCCAG [tttttgagapaired]” the binding signal (log2 fold change) was 0.684. Work on “GUGUGUGGUGUUGGUACCUAACACCGCACG [gtspaired]” yielded a binding signal (log2 fold change) of -0.419. With “UUUUUUUUUUGAGAGCGGUCCGCUCUUCUA [tttttgagapaired]” the binding signal (log2 fold change) was 0.538. “UUUUUUUUUUGAGAGUGUAGCAUUCUCCGG [tttttgagapaired]” showed a binding signal (log2 fold change) of 0.308. In the case of “GUGUGUUGUGUUGGCGCCUAACACAACACG [gtspaired]”, the binding signal (log2 fold change) is reported as -0.448. “UUUUUUUUUUGAGAGCGAGGCGCUCUUCUG [tttttgagapaired]” was tested, and the binding signal (log2 fold change) was 0.25. Sequence “GUUGUGUGUGUUGGUCCCUAACACACGCAG [gtspaired]” has a binding signal (log2 fold change) of -0.59. “UUUUUUUUUUGAGAUGGGCACUAUCUCCUA [tttttgagapaired]” gave a binding signal (log2 fold change) of 0.395. Sequence “GUGUGGUGUGUUGGACUCUAACACAUCACA [gtspaired]” has a binding signal (log2 fold change) of -0.694. “UUUUUUUUUUGAGAUCGAUACGAUCUCCAG [tttttgagapaired]” showed a binding signal (log2 fold change) of 0.23. Work on “UUUUUUUUUUGAGACGGUGGCCGUUUCCGG [tttttgagapaired]” yielded a binding signal (log2 fold change) of 0.914. “UUUUUUUUUUGAGACGGAAGCUGUCUCCGG [tttttgagapaired]” gave a binding signal (log2 fold change) of 0.765.
